The RNAGym collection of RNA variant scans (doi:10.1073/pnas.2313332121)
This sample is rich in variants without activity.

B1: TPR 5TU (parent)
chain: GGAUCUUCUCGAUCUAACAAAAAAGACAAAUCUGCCACAAAGCUUGAGAGCAUCUUCGGAUGCAGAGGCGGCAGCCUUCGGUGGCGCGAUAGCGCCAACGUUCUCAACUAUGACACGCAAAACGCGUGCUCCGUUGAAUGGAGUUUAUCAUG

Variants of: B1
Experiment: polymerase ribozyme fitness, log enrichment relative to wild type (log ratio); higher = more active; in vitro selection for triplet polymerase activity
Procedure, shortened: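 Fitness is a logarithmic measure of how a genotype enriched relative to the wild type, with replicate averages weighted by inverse variance. The logarithm uses base 2, and enrichment came from Illumina sequencing of input and output libraries. Those libraries were PCR-built, transcribed mutants of each subunit of a heterodimeric triplet polymerase ribozyme, passed through one triplicate in vitro selection round that included frozen incubation at −7 °C, gel excision of extended constructs and streptavidin-bead capture. Genotypes were kept only if they had ≥10 input reads and ≥1 read per output.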

| Variant | polymerase ribozyme fitness (log ratio) |
| --- | --- |
| A91G A120G | -2.98 |
| C93U C114U G141A | ≤ -4.2 |
| G86U U90G A98U G143C | ≤ -4.2 |
| A91U C108A C114A C129A U146A | ≤ -4.2 |
| C95U C99G U104G A110G C116A A142U | ≤ -4.2 |
| C95U G112A C125U U146G C149G | ≤ -4.2 |
| G88U G141U | -3.23 |
| U90A C99U C103G G140A | ≤ -4.2 |
| C93G A97U U145G | ≤ -4.2 |
| C95A A121U U139G G141A | ≤ -4.2 |
| C96U A137U | -3.84 |
| C93G A97G G140C A147U C149G | ≤ -4.2 |
| U90A C125G A147C U148C | -3.99 |
| C87U C105G A121U A122U | -1.19 |
| C96A G124A | -0.328 |
| C93G A150G | -4.14 |
| C96U A115G G136U A142G | -3.69 |
| C87A C96G C105U C116A | ≤ -4.2 |
| C93A U102C C105G A119C U135G | ≤ -4.2 |
| G92C U139A | -4.2 |
| C96U G117U A120U C149A | ≤ -4.2 |

| Variant | polymerase ribozyme fitness (log ratio) |
| --- | --- |
| G92U C99U U144G | 0.0398 |
| U90C C95A U102A C132A | ≤ -4.2 |
| C87U A115U | -1.73 |
| G94A C105A | -1.65 |
| A89G G92U C96G C103A G136C G140A | ≤ -4.2 |
| A91U C118A A142C U144G | ≤ -4.2 |
| G88C U101C A113C U139G | ≤ -4.2 |
| C93G C103U A106C C118U U135G | ≤ -4.2 |
| C87A U90C G117C | -3.77 |
| C87U A107U | -3.34 |
| G94A G141A A150U | ≤ -4.2 |
| G88U C108U U139A | ≤ -4.2 |
| G94C C108U U130G | ≤ -4.2 |
| A89U G92A | ≤ -4.2 |
| G92U C118A | -1.05 |
| C93U A98G | -1.59 |
| C87A G133C U145C U146C | ≤ -4.2 |
| A91G U145A | -3.07 |
| G88U G117U A142C | ≤ -4.2 |
| C93U U102G | ≤ -4.2 |
| C93U A107G C118G G133C | ≤ -4.2 |

| Variant | polymerase ribozyme fitness (log ratio) |
| --- | --- |
| C93G G100A | ≤ -4.2 |
| G92U U104G C132U | -2.5 |
| A89U A91U C116U | ≤ -4.2 |
| C93G A106C G141U C149A | ≤ -4.2 |
| C95A C96A C123U G140U | ≤ -4.2 |
| U90A G136U G140C | ≤ -4.2 |
| G94C A107C C116U C123G | ≤ -4.2 |
| C93A U151G | ≤ -4.2 |
| C93G A147U | -1.74 |
| A89C C99U C114U | -2.63 |
| U90C G92A C123A G126A A147C | ≤ -4.2 |
| G88U A142U | ≤ -4.2 |
| A89U A97G U134A G141C | -3.84 |
| G94C A107U C108A U127G | ≤ -4.2 |
| C87A G88A A137U | ≤ -4.2 |
| G92U G94C A106G C123A U145C | -1.97 |
| C95U C123A C125U | -0.165 |
| C87U A97G G100C C125G | ≤ -4.2 |
| C87A A110C C116A A142U | ≤ -4.2 |
| G92C G100C U139A | ≤ -4.2 |
| C87U U111G | ≤ -4.2 |

| Variant | polymerase ribozyme fitness (log ratio) |
| --- | --- |
| C96A | -0.52 |
| C96G | -0.496 |
| C96U | -0.258 |
| C93A A120U | -3.4 |
| G88U C149U | ≤ -4.2 |
| C95U A98C G133U U139C U144C U151A | ≤ -4.2 |
| G94A C116U A122U G136A | -0.164 |
| G92A U101G C149U | -3.56 |
| A89U G92C G94U G141A | -3.94 |
| C93U C95U C131U | -0.998 |
| G94A G133C | -2.71 |
| A91G A115U G133C | ≤ -4.2 |
| G88A C93G C149G | ≤ -4.2 |
| G92C A98G A115U C149G | ≤ -4.2 |
| C96A G143C | -2.38 |
| G94A C108A A115U U146C | ≤ -4.2 |
| G92U A97C | -0.00996 |
| G92A C129A A147G | ≤ -4.2 |
| C93U A113U A119C G140U | -3.82 |
| G88A C105A A147C U151G | ≤ -4.2 |
